Assay results reported in the supplement of paper PMC12217912.
The list shows a part of the results. Sequences were assembled here from the parent chain. Values near 0.05 are background.

B1: TEV protease; numbered along this chain (parent)
chain: MGESLFKGPRDYNPISSSICHLTNESDGHTTSLYGIGFGPFIITNKHLFRRNNGTLVVQSLHGVFKVKDTTTLQQHLVDGRDMIIIRMPKDFPPFPQKLKFREPQREERICLVTTNFQTKSMSSMVSDTSCTFPSGDGIFWKHWIQTKDGQCGSPLVSTRDGFIVGIHSASNFTNTNNYFTSVPKNFMELLTNQEAQQWVSGWRLNADSVLWGGHKVFMVKPEEPFQPVKEATQL

Variants of: B1
Assay: raw area under fraction-flipped curve 0-4 h after induction (AUC4h, not background-subtracted), DNA-recorder readout of cleavage of the substrate (dimensionless); higher = more cleavage of the substrate by the protease variant
Conditions: temperature: 34 °C; time window: 0-4 h after rhamnose induction
Description: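 In vivo DNA recorder in E. coli TOP10(DE3) ΔrhaA at 34 °C. Each TEVp single-site mutant (parent TEVp 0) is paired with a single-site variant of the 7-mer TEVs (canonical ENLYFQ|S). The substrate sits between flexible linkers in a Bxb1-sfGFP-TEVs-SsrA fusion, so cleavage stabilises Bxb1 and speeds flipping of a recombination array, read by NGS. The value is the raw area under the fraction-flipped curve over 0-4 h after rhamnose induction (AUC4h), with ≥20 reads per time point. It is not background-subtracted; inactive controls average about 0.047.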
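Also: Bxb1 expression induced with 0.2% (w/v) L-rhamnose at OD600 near 0.5, cultures sampled hourly, flipped fraction per protease–substrate barcode pair counted by paired-end Illumina sequencing.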

Variant	area with substrate ENAYFQS	area with substrate ENCYFQS	area with substrate ENDYFQS	area with substrate ENEYFQS	area with substrate ENFYFQS	area with substrate ENHYFQS	area with substrate ENIYFQS	area with substrate ENQYFQS	area with substrate ENRYFQS	area with substrate ENVYFQS	area with substrate ENGYFQS	area with substrate ENKYFQS	area with substrate ENNYFQS	area with substrate ENPYFQS	area with substrate ENSYFQS	area with substrate ENTYFQS	area with substrate ENWYFQS	area with substrate ENYYFQS	area with substrate ENMYFQS
T147C	0.0426	0.0748	0.0677	0.0628	0.0633	0.0876	0.0668	0.0557	0.0449	0.08									
T147L	0.0566	0.0629	0.0515	0.0583		0.0442	0.0743	0.0538	0.0583	0.0577	0.0618	0.0613	0.0492	0.0602	0.0568	0.0582	0.0517	0.0501	
Q146L	0.084		0.0644												0.0691	0.0537			
I167N	0.0576	0.0544	0.0537	0.0607	0.0423		0.0521	0.0565		0.056	0.0628		0.0491		0.0666		0.0548		0.0552
I167H	0.056	0.0419		0.0436	0.057				0.0758		0.0973						0.0572		
S154Q	0.0672	0.0617					0.104	0.061	0.0655		0.0635	0.0789				0.0516			0.0956
N178V	0.0573		0.0785	0.0646	0.0461	0.0575		0.0619		0.0625			0.0557	0.0865	0.0539	0.0716			0.0398
T159R	0.0512	0.0828		0.068		0.062		0.0468	0.0603						0.0588		0.0304	0.05	
N177K	0.0734	0.062		0.0664		0.0792	0.0405				0.0674						0.0602		
F180D	0.0989		0.0578	0.0522			0.0674	0.0477					0.0389	0.0328	0.0387	0.0479		0.0617	
F180R	0.0456	0.051	0.0503	0.0656	0.0556	0.0503	0.0521	0.0403				0.0498		0.0567	0.0612	0.0498		0.0509	
F180A	0.0639		0.0575		0.0578		0.0684	0.0301			0.0626	0.0195			0.0656	0.0842			
N172F	0.0518	0.0547	0.0626	0.0581						0.089					0.0792				
P155R	0.0241	0.0493	0.0556	0.0704	0.0167	0.0513		0.0643	0.0517	0.0292	0.0565		0.064	0.0615		0.0401		0.0517	
T181S	0.0596	0.062		0.0613		0.0615		0.0653											0.0661
T181R	0.0517	0.0482		0.0494	0.0447		0.0617	0.0478	0.0432	0.0429	0.0597		0.0534	0.0495	0.0538	0.0544	0.0447		0.0545

Variant	area with substrate ENAYFQS	area with substrate ENCYFQS	area with substrate ENDYFQS	area with substrate ENEYFQS	area with substrate ENFYFQS	area with substrate ENHYFQS	area with substrate ENIYFQS	area with substrate ENQYFQS	area with substrate ENRYFQS	area with substrate ENVYFQS	area with substrate ENGYFQS	area with substrate ENKYFQS	area with substrate ENNYFQS	area with substrate ENPYFQS	area with substrate ENSYFQS	area with substrate ENTYFQS	area with substrate ENWYFQS	area with substrate ENYYFQS	area with substrate ENMYFQS
F173G	0.0573		0.0641	0.0694		0.0491		0.0564		0.0568				0.0594		0.0652	0.0582		
F173W	0.0686	0.0625	0.0899	0.0674	0.0604	0.052		0.0588	0.0586	0.0472	0.0627		0.08		0.0463		0.0791		0.0619
I164R	0.0467	0.0477	0.0547	0.0605	0.055	0.0365		0.0573		0.0534	0.058		0.0587		0.0481	0.0534	0.0283	0.0546	
I164S	0.0543		0.0913	0.0595	0.0605	0.0599	0.0547	0.067	0.0544	0.0543	0.0672	0.0629	0.06		0.0576	0.048	0.0385	0.0596	0.0517
I164K	0.0617			0.0437						0.0601								0.0276	
D161E	0.0169	0.0653	0.059	0.0649	0.058	0.0558	0.0821	0.0523	0.0412	0.061	0.069			0.0646	0.0681	0.0457			0.0708
S158M	0.0473			0.0285	0.0552	0.06		0.0445		0.0525	0.0352	0.0556	0.0676		0.0708	0.0328		0.0479	
S158W	0.0494	0.0542	0.0613	0.0487	0.0585	0.0412	0.056	0.0448	0.0433	0.0555	0.0567		0.0324		0.0495	0.0486		0.0587	
D149H	0.061	0.0614	0.0599	0.0513	0.058			0.0598			0.0561		0.0663	0.0545	0.0584	0.0599		0.0635	
D149C	0.0678		0.0559	0.0499	0.0544			0.0567		0.0654				0.0596		0.031			
G153E	0.0596	0.0562						0.046		0.056		0.0532		0.0503	0.0608	0.0528			
W141V	0.0535	0.0482	0.07			0.0521	0.07	0.0703	0.0583		0.0562	0.0736	0.0477	0.0412	0.0632	0.0506	0.0539		0.0502
W141Y	0.0507		0.0757		0.071				0.0531	0.0726			0.0672		0.0715				0.0517
S182T	0.0416	0.0704	0.0687	0.0645	0.0733			0.0572					0.0531		0.0684	0.0705		0.0351	
S182Q	0.0398		0.063	0.0485	0.0539	0.0565	0.0292	0.0547	0.0317	0.0574	0.0637	0.0592	0.0541		0.0632	0.0567			0.0306
S182G	0.0545			0.0657							0.0415		0.0638		0.0686	0.0569			
